± gives the standard deviation. The list shows a part of the results, in another mix than the full data.
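Note: 1 nM active piRISC with 0.1 nM target library at 33 °C single turnover.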

The test system of this assay is MIWI (PIWIL1) piRISC loaded with piRNA #1 (30 nt). Briefly: pre-steady-state target cleavage rate (min^-1); MIWI and MILI are mouse PIWI proteins and EfPiwi is from a freshwater sponge; tags in brackets are library labels; higher = faster piRNA-guided slicing of the target. The note with it: guide: piRNA #1 5'p-UGAGGUAGUAGGUUGUAUAGUAUCCAGAGG; auxiliary factor: 500 nM mouse GTSF1. In short, it runs like this: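 At 33 °C in HEPES–potassium acetate buffer, a transcribed, DNA-blocked target RNA library […] was exposed for 0–8 or 0–960 min to 1 nM active affinity-purified piRISC carrying a single synthetic guide, with or without 500 nM GTSF1 partner protein. Uncleaved targets were sequenced and normalised to depth and to weakly complementary targets. With three trials pooled and k3 capped at 0.0001 min^-1, a burst-and-steady-state fit produced the pre-steady-state cleavage rate.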
Regarding GGACUGGAUACUAUAGAUCCUACUACCUCA, the “pre-steady-state target cleavage rate” value was 1.16 ± 0.078.

Consider GGAGACGAUACUUUAGAACCUACUACCUCA, for which the “pre-steady-state target cleavage rate” value is 0.996 ± 0.052.

With GGAGACCUAUGUAUACAAGCUUCUACCUCA, the “pre-steady-state target cleavage rate” value worked out at 0.00411 ± 0.0032.

Take GGAGUGGAUAGUAUACAACCUACUACCUGA: the “pre-steady-state target cleavage rate” value is 0.164 ± 0.036.

As to GGAGACCUUACUAUUCAACCUACUACCUCA, the “pre-steady-state target cleavage rate” value stood at 1.19 ± 0.096.

For the sequence GCUCUGGAUACUAUACAACUUACUACCUCA, the “pre-steady-state target cleavage rate” value came out at 0.622 ± 0.023.

With CCUCAGGAAACUAUACAACCUACUACCUCA, the “pre-steady-state target cleavage rate” value turned out to be 2.04 ± 0.1.

Turning to GGAGACGAAACAAUACAACCUACUACCUCA, the “pre-steady-state target cleavage rate” value amounted to 0.543 ± 0.097.

Consider GGACUGGAUAGUAUACUACCUACUACCUCA, for which the “pre-steady-state target cleavage rate” value turned out to be 0.453 ± 0.06.

For GGAGACCAUACUAAACAACCUAGUACCUCA, the “pre-steady-state target cleavage rate” value came to 0.297 ± 0.028.

Regarding GGAGUGGAUACUAUACAACCUACUACCUUA, the “pre-steady-state target cleavage rate” value was determined as 0.77 ± 0.054.

Turning to GGAGAAGAUACUAUACAACCUACUACCUCA, the “pre-steady-state target cleavage rate” value worked out at 2.04 ± 0.11.

Regarding GGACAGGUUACUAUACAACCUACUACCUCA, the “pre-steady-state target cleavage rate” value was 1.9 ± 0.14.

Take GGAGACCUUAUAUACAACCUACUACCUCA: the “pre-steady-state target cleavage rate” value worked out at 0.0811 ± 0.0097.

With CCUACUGGAUACUAUACAACCUACUACCUCA, the “pre-steady-state target cleavage rate” value came to 2.04 ± 0.11.

For the sequence GCUCUGGAUACUAUACUACGUACUACCUCA, the “pre-steady-state target cleavage rate” value was 0.608 ± 0.054.

With GGAGUGGAUACAAUACAUCCUACUACCUCA, the “pre-steady-state target cleavage rate” value stood at 0.837 ± 0.048.

In the case of GGAGACCUAUGAUAAGAACCUUCUACCUCA, the “pre-steady-state target cleavage rate” value is < 0.0001.

Turning to GGAGAGGAUACUAUUCAACCUUCUACCUCA, the “pre-steady-state target cleavage rate” value worked out at 0.493 ± 0.021.

In the case of CUCUCUGGAUACUAUACAACCUACUACCUCA, the “pre-steady-state target cleavage rate” value was determined as 2.1 ± 0.13.

GGAGUGGAUACAAUACAACCUAGUACCUCA: the “pre-steady-state target cleavage rate” value is 0.54 ± 0.058.

Consider CGUCUGGAUACUAUACAACCUACUUCCUCA, for which the “pre-steady-state target cleavage rate” value was 0.626 ± 0.05.

Regarding GCUCUGGAUUCAAUACAACCUACUACCUCA, the “pre-steady-state target cleavage rate” value was found to be 0.42 ± 0.073.

For “GGAGACCUAUCUAUACAACCUACUAGGAGA [g6:g20:cont:t1A]”, the “pre-steady-state target cleavage rate” value was 0.031 ± 0.011.
